{
  "source": "patent US20240269278A1",
  "about": "“ANTI-CD47 ANTIBODY FOR COMBINED TREATMENT OF BLOOD TUMOR” (Nanjing Shunxin Pharmaceuticals Co., Ltd. of Chiatai …, priority 2021, published 2024)",
  "key": {"[1]": {"experiment": "Thermostability assay based on Nano DSF (Prometheus NT.48)", "type": "physicochemical", "protocol": "The high-throughput protein stability analyzer Prometheus NT.48 is an instrument for acquiring various types of data such as protein molecular structure stability, aggregation stability, and colloid dispersion stability. The melting temperatures (Tm) and the aggregation temperatures (Tagg) of the anti-CD47 chimeric antibodies and the anti-CD47 humanized antibodies were determined using this instrument."}, "HL60 cells": {"system": "HL60 cells", "experiment": "Promotion of macrophage phagocytosis of tumor cells (flow cytometry)", "type": "cell-based, human", "details": "CFSE-labeled HL60 cells, human macrophages", "protocol": "The ability of the anti-CD47 antibodies to promote the phagocytosis of tumor cells by macrophages having SIRPα on the cell surface was determined based on flow cytometry.\nMonocytes were isolated from human peripheral blood mononuclear cells (PBMC, Sailybio, Cat. No. 190056) using a monocyte isolation kit ([…], Cat. No. 19058), plated into a 24-well plate (Greiner bio-one, Cat. No. 662-160) at […] cells per well, and induced under 100 ng/mL stimulating factor M-CSF (R&D Systems, Cat. No. 216-MC-010) for 7 days to form macrophages. 1×10^6 target cells HL60 (Shanghai Institute of Biochemistry and Cell Biology, Chinese Academy of Sciences, Cat. No. TCHu23) were suspended in […] CFSE (BD Biosciences, Cat. No. 565082) fluorescent dye (diluted with a PBS buffer to the desired concentration), incubated in a water bath at 37° C. in the dark for 15 min, and washed with a PBS buffer to prepare CFSE-labeled HL60 cells, which were then incubated with each of 10 μg/mL and 1 μg/mL anti-CD47 antibodies (see Table 3 for chimenic antibodies, and see Table 4 for humanized antibodies) in an incubator at 37° C. with 5% CO2 for 1-2 h. The HL60 cells after the incubation were washed three times with a PBS buffer and added to the macrophages. The cells were incubated in an incubator at 37° C. with 5% CO2 for 2-4 h. After the cells were washed three times with a PBS buffer, a mixture of 1260 μL of PBS, 20 μL of anti-APC-CD14 (APC MouseAnti-Human CD14, BD Biosciences, Cat. No. 555399), and 20 μL of PE-CD11b (PE Mouse Anti-Human CD11b/1Mac-1, BD Biosciences, Cat. No. 555388) antibody was added to each well. The cells were incubated at 4° C. in the dark for 30 min, washed three times with a PBS buffer, and digested with trypsin (Gibco, Cat. No. 12604-013). The rate of phagocytosis (%) by the macrophages was determined using a flow cytometer (BD Biosciences, model: C6)."}},
  "data": [
    {"molecule": "hz3F10-2.2: humanized anti-CD47 antibody, heavy chain SEQ ID NO: 137, light chain SEQ ID NO: 139 (antibody, heavy chain; light chain) heavy: QVQLVQSGAEVKKPGSSVKVSCKASGYTFSRYWIEWVRQAPGQGLEWMGEFIPGSDTTNYAQKFQGRVTITAEISTNTAYMELSSLRSEDTAVYYCARGGLRRMDYWGQGTLVTVSSASTKGPSVFPLAPCSRSTSESTAALGCLVKDYFPEPVTVSWNSGALTSGVHTFPAVLQSSGLYSLSSVVTVPSSSLGTKTYTCNVDHKPSNTKVDKRV[omitted - human IgG4 Fc with S228P (EU numbers)] light: DIQMTQSPSSLSASVGDRVTITCRASSSVSSTYLHWYQQKPGKAPKLLIYTTSTLASGVPSRFSGSGSGTDFTLTISSLQPEDFATYYCQQFSESTWTFGQGTKLEIKRTVAAPSVFIFPPSDEQLKSGTASVVCLLNNFYPREAKVQWKVDNALQSGNSQESVTEQDSKDSTYSLSSTLTLSKADYEKHKVYACEVTHQGLSSPVTKSFNRGEC", "values": [
      {"measurement": "Tagg (aggregation temperature)", "setting": "[1]", "value": 62.40, "unit": "°C"},
      {"measurement": "Tm (melting temperature)", "setting": "[1]", "value": 68.92, "unit": "°C"},
      {"measurement": "rate of phagocytosis", "setting": "HL60 cells; 1 μg/mL antibody", "value": 44.19, "unit": "%"},
      {"measurement": "rate of phagocytosis", "setting": "HL60 cells; 10 μg/mL antibody", "value": 34.72, "unit": "%"}
    ]},
    {"molecule": "hz3F10-3.2: humanized anti-CD47 antibody, heavy chain SEQ ID NO: 141, light chain SEQ ID NO: 143 (antibody, heavy chain; light chain) heavy: QVQLVQSGAEVKKPGSSVKVSCKASGYTFSRYWIEWVRQAPGQGLEWMGEFIPGSDTTNYAQKFQGRVTITAEISTNTAYMELSSLRSEDTAVYYCARGGLRRMDYWGQGTLVTVSSASTKGPSVFPLAPCSRSTSESTAALGCLVKDYFPEPVTVSWNSGALTSGVHTFPAVLQSSGLYSLSSVVTVPSSSLGTKTYTCNVDHKPSNTKVDKRV[omitted - human IgG4 Fc with S228P (EU numbers)] light: DIQMTQSPSSLSASVGDRVTITCRASSSVSSTYLHWYQQKPGKAPKLLIYTTSTLASGVPSRFSGSGSGTSYTLTISSLQPEDFATYYCQQFSDSTWTFGQGTKLEIKRTVAAPSVFIFPPSDEQLKSGTASVVCLLNNFYPREAKVQWKVDNALQSGNSQESVTEQDSKDSTYSLSSTLTLSKADYEKHKVYACEVTHQGLSSPVTKSFNRGEC", "values": [
      {"measurement": "Tagg (aggregation temperature)", "setting": "[1]", "value": 61.80, "unit": "°C"},
      {"measurement": "Tm (melting temperature)", "setting": "[1]", "value": 68.30, "unit": "°C"},
      {"measurement": "rate of phagocytosis", "setting": "HL60 cells; 1 μg/mL antibody", "value": 47.04, "unit": "%"},
      {"measurement": "rate of phagocytosis", "setting": "HL60 cells; 10 μg/mL antibody", "value": 37.09, "unit": "%"}
    ]},
    {"molecule": "hz3F10-4.2: humanized anti-CD47 antibody, heavy chain SEQ ID NO: 145, light chain SEQ ID NO: 147 (antibody, heavy chain; light chain) heavy: QVQLVQSGAEVKKPGSSVKVSCKASGYTFSRYWIEWVRQAPGQGLEWMGEFIPGSDTTNYAQKFQGRVTITAEISTNTAYMELSSLRSEDTAVYYCARGGLRRMDYWGQGTLVTVSSASTKGPSVFPLAPCSRSTSESTAALGCLVKDYFPEPVTVSWNSGALTSGVHTFPAVLQSSGLYSLSSVVTVPSSSLGTKTYTCNVDHKPSNTKVDKRV[omitted - human IgG4 Fc with S228P (EU numbers)] light: DIQMTQSPSSLSASVGDRVTITCRASSSVSSTYLHWYQQKPGKAPKLLIYTTSTLASGVPSRFSGSGSGTSYTLTISSLQPEDFATYYCQQFSESTWTFGQGTKLEIKRTVAAPSVFIFPPSDEQLKSGTASVVCLLNNFYPREAKVQWKVDNALQSGNSQESVTEQDSKDSTYSLSSTLTLSKADYEKHKVYACEVTHQGLSSPVTKSFNRGEC", "values": [
      {"measurement": "Tagg (aggregation temperature)", "setting": "[1]", "value": 61.13, "unit": "°C"},
      {"measurement": "Tm (melting temperature)", "setting": "[1]", "value": 68.48, "unit": "°C"},
      {"measurement": "rate of phagocytosis", "setting": "HL60 cells; 1 μg/mL antibody", "value": 46.24, "unit": "%"},
      {"measurement": "rate of phagocytosis", "setting": "HL60 cells; 10 μg/mL antibody", "value": 31.67, "unit": "%"}
    ]}
  ]
}
